The RNAGym collection of RNA variant scans (doi:10.1093/nar/gkz1192)
The source gives no read counts; variants with many changes may rest on few reads.

B1: CPEB3 Ribozyme (parent)
chain: UAACAGGGGGCCACAGCAGAAGCGUUCACGUCGCAGCCCCUGUCAGAUUCUGGUGAAUCUGCGAAUUCUGCUGUAUAUCUC

Variants of: B1
Assay: self-cleavage, relative activity (ratio to wild type); higher = more cleavage; in vitro, sequencing
Summary of the method: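 Libraries of CPEB3 self-cleaving ribozyme mutants came from rounds of error-prone PCR and carried barcodes, which DNA sequencing matched to variants. In vitro transcription used T7 RNA polymerase at 37°C for 5 hours, with a further 15 min in DNase I before EDTA stopped the reaction; the ribozymes cleaved during both steps. The RNA was reverse transcribed with template switching and sequenced on Illumina. Relative activity is the cleaved/total read fraction of a variant divided by that of the unmutated ribozyme, averaged over three batches with at least 5 reads.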
Variant G10A A18G C32U U51A U54A U74C A77U has a self-cleavage of 0.21.
G10A A13G U31A gave a self-cleavage of 0.06.
With G9U A18G A65G U66A G73A the self-cleavage was 0.03.
In the case of G9U U31C U51C U67C, the self-cleavage is reported as 0.08.
Variant G9U A15U U78A has a self-cleavage of 0.15.
G10A A15U U69A showed a self-cleavage of 0.11.
Variant G9U U41C U48C A56G A77U has a self-cleavage of 0.17.
In the case of G9U U25C A56U, the self-cleavage is reported as 0.06.
With G9U U26C U31A the self-cleavage was 0.05.
G9C U54C U67A showed a self-cleavage of 0.14.
With G9U A15U U48C U51C A56U U67C the self-cleavage was 0.06.
G10A A15U A18G U41A U78A showed a self-cleavage of 0.02.
Work on G9C A15G A45G A77G yielded a self-cleavage of 0.32.
With G9U A20G A28G the self-cleavage was 0.04.
In the case of G9U A13U A15U A28G U66C U69A, the self-cleavage is reported as 0.11.
In the case of G9C G22U G46C A47G G63U U72A, the self-cleavage is reported as 0.12.
In the case of G9C U25A U72A, the self-cleavage is reported as 0.17.
Variant G9C A20U U26C U80C has a self-cleavage of 0.07.
Variant G9C G30U U76C has a self-cleavage of 0.08.
G9U C37U U41C A45U U49C A56U gave a self-cleavage of 0.04.
G9U G10A A21U G42A A47G U67A showed a self-cleavage of 0.04.
G9A U54C U60C A65G gave a self-cleavage of 0.39.
With G9U U41A A45U the self-cleavage was 0.04.
For G10A A13G U51A U74A U80A, the self-cleavage was 0.12.
G9C U25A C40U U48A U51G showed a self-cleavage of 0.23.
With G9C U60C U67C the self-cleavage was 0.11.
In the case of G9U U25A U66C U69C, the self-cleavage is reported as 0.05.
In the case of G9U U43A A47U U51A, the self-cleavage is reported as 0.14.
Variant G9U U25C U69A U72C has a self-cleavage of 0.06.
G10A A13G A21U U54C A56U U66C U72A showed a self-cleavage of 0.03.
With G9U A35U U60A A77G U78A the self-cleavage was 0.04.
G9C A35U A56U showed a self-cleavage of 0.
Work on G9C A18U G22A U25C U74C yielded a self-cleavage of 0.04.
Variant G9C U58C U74C has a self-cleavage of 0.23.
For G10A A15C U31A G42C, the self-cleavage was 0.06.
Work on G9U C50U A64U yielded a self-cleavage of 0.06.
For G9U C11U U51C U60C A65G A77U, the self-cleavage was 0.04.
Work on G10A A18U A20G U43A yielded a self-cleavage of 0.05.
In the case of G9A U67C A77U, the self-cleavage is reported as 0.07.
For G9U A18U U25C U26C A56G, the self-cleavage was 0.05.
G10A A15G A64G gave a self-cleavage of 0.1.
With G9U C11U U51A U69C the self-cleavage was 0.11.
G10A A13G C39U A77G showed a self-cleavage of 0.3.
For G9U A15U A20G A75G A77G, the self-cleavage was 0.04.
G9U A28U U78C gave a self-cleavage of 0.17.
G9U A35U U41A U80C showed a self-cleavage of 0.35.
With G9U A56U U80C the self-cleavage was 0.18.
G9U C37G G63U U66A showed a self-cleavage of 0.15.
For G9U A18G U25C U48C, the self-cleavage was 0.25.
Variant G10A A13U A18G U51C A56G has a self-cleavage of 0.1.
Work on G9U A18G A57G A65G U76C U80C yielded a self-cleavage of 0.04.
Work on G9U U76C A77G yielded a self-cleavage of 0.19.
Work on G9C A15G U43G A64G yielded a self-cleavage of 0.07.
G9U A35G U51C gave a self-cleavage of 0.24.
For G9U A20G U54A U80A, the self-cleavage was 0.34.
G9U U69C U72C showed a self-cleavage of 0.13.
Variant G9A U58A U72C has a self-cleavage of 0.15.
Variant G9C C40U U41C has a self-cleavage of 0.07.
G9U A18U U25C U41G U66A U72A U78C gave a self-cleavage of 0.09.
Work on G10A A18G G30A U76C yielded a self-cleavage of 0.04.
G9U A21C G30A A35U U41C U43C gave a self-cleavage of 0.04.
With G9U A21G U31C A45G U60C the self-cleavage was 0.07.
For G9U A20U C50U U80A, the self-cleavage was 0.13.
G9U A18U U31A A45U U58C U78C showed a self-cleavage of 0.12.
With G9U A15U U54C the self-cleavage was 0.16.
With G9U A28G A35U U60C U66C the self-cleavage was 0.05.
With G9U G30A C44A U66A the self-cleavage was 0.03.
In the case of G9U U43A A45G U67C A77G, the self-cleavage is reported as 0.09.
For G9U U49C A64G U72A A75U, the self-cleavage was 0.05.
G10A A15G U66C showed a self-cleavage of 0.21.
In the case of G9U A15G U26A U74C, the self-cleavage is reported as 0.31.
Variant G9A U54A U60A has a self-cleavage of 0.17.
G10A A13G C38U U67A U80C showed a self-cleavage of 0.05.
Variant G10A A15U U66C has a self-cleavage of 0.04.
Variant G9U U41A A56G has a self-cleavage of 0.17.
With G9C A13U U60C the self-cleavage was 0.11.
With G9U U43C U72C the self-cleavage was 0.39.
Variant G9U A20G U25C U26C C68U has a self-cleavage of 0.33.
G10A A15C U25C U51C gave a self-cleavage of 0.32.
G10A A18G U48C U69A gave a self-cleavage of 0.19.
Variant G9C A15G U51G A56G A57G has a self-cleavage of 0.25.
Work on G9U A18G A56U U74C yielded a self-cleavage of 0.17.
Variant G9U A15G A28U has a self-cleavage of 0.09.
